{
  "source": "the supplement of paper PMC10338343",
  "note": "± gives the standard deviation. This is a selection; strong and weak results do not stand in their true shares.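 Note: 1 nM active piRISC with 0.1 nM target library at 33 °C single turnover.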",
  "data": [
    {"system": "MIWI (PIWIL1) piRISC loaded with piRNA #1 (30 nt)", "test": "pre-steady-state target cleavage rate (min^-1); MIWI and MILI are mouse PIWI proteins and EfPiwi is from a freshwater sponge; tags in brackets are library labels; higher = faster piRNA-guided slicing of the target", "details": "guide: piRNA #1 5'p-UGAGGUAGUAGGUUGUAUAGUAUCCAGAGG; auxiliary factor: 500 nM mouse GTSF1", "method_in_brief": "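The pre-steady-state cleavage rate was calculated from a burst-and-steady-state fit. Data came from Cleave-'n-Seq, in which […] transcribed, DNA-blocked target RNA library was mixed with 1 nM active affinity-purified piRISC carrying one synthetic guide, with or without 500 nM GTSF1 partner protein, in HEPES–potassium acetate buffer at 33 °C for 0–8 or 0–960 min. Uncleaved targets were sequenced and normalised to depth and to weakly complementary targets, three trials were pooled, and k3 was capped at 0.0001 min^-1.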", "values": [
      {"sequence": "GCUCUGGAUCACUAUACAACCUACUACCUCA", "pre-steady-state target cleavage rate": "1.05 ± 0.091"},
      {"sequence": "CCUCUGGAUACAAUACAUCCUACUACCUCA", "pre-steady-state target cleavage rate": "1.56 ± 0.11"},
      {"sequence": "GGAGUCGAUACUAUACAACGUACUACCUCA", "pre-steady-state target cleavage rate": "0.612 ± 0.045"},
      {"sequence": "GGUCAGGAUACUAUACAACCUACUAGCUCA", "pre-steady-state target cleavage rate": "0.255 ± 0.033"},
      {"sequence": "CCUCUGGAUACUAUACAAACUACUACCUCA", "pre-steady-state target cleavage rate": "1.27 ± 0.047"},
      {"sequence": "GGAGAGGAUACUAUACAACCAACUUCCUCA", "pre-steady-state target cleavage rate": "0.0155 ± 0.0039"},
      {"sequence": "GGAGACCAUACUUUACAACCUACUUCCUCA", "pre-steady-state target cleavage rate": "0.249 ± 0.041"},
      {"sequence": "GGAGACGAUACUAUACAACCUACAACGUCA", "pre-steady-state target cleavage rate": "0.322 ± 0.11"},
      {"sequence": "CCUCUCGUUACUAUACAACCUACUACCUCA", "pre-steady-state target cleavage rate": "1.76 ± 0.1"},
      {"sequence": "GGAGACCUAACUAUACAACCUACUACCAUCA", "pre-steady-state target cleavage rate": "0.947 ± 0.095"},
      {"sequence": "GGAGUGGAUACUUUACAACCUACUUCCUCA", "pre-steady-state target cleavage rate": "0.00478 ± 0.0019"},
      {"sequence": "GGAGUGGAUAGUAUACAACCUACUACCACA", "pre-steady-state target cleavage rate": "0.0767 ± 0.022"},
      {"sequence": "GGACUGGAUACUAUAGAACCUACUACCUCA", "pre-steady-state target cleavage rate": "1.37 ± 0.087"},
      {"sequence": "GGAGACCUAUCAAUACAAGCUACUACCUCA", "pre-steady-state target cleavage rate": "0.0616 ± 0.015"},
      {"sequence": "GGAGACCAUACAAUAGAACCUACUACCUCA", "pre-steady-state target cleavage rate": "0.448 ± 0.06"},
      {"sequence": "GGAGACCUAACUAUACAACCUACUUACCUCA", "pre-steady-state target cleavage rate": "0.992 ± 0.067"},
      {"sequence": "CCUCUGGAUACUAUACAACGUACUACCUCA", "pre-steady-state target cleavage rate": "1.01 ± 0.057"}
    ]}
  ]
}
